Consider 51 test systems from the supplement of paper PMC11055344.

MIC of nasopharyngeal S. pneumoniae isolates by broth microdilution (range and time not stated); higher = less susceptible. No active / inactive call per row; the paper counts penicillin above 0.06 and amoxicillin above 0.5 mg/L as non-susceptible (EUCAST). The lowest value, 0.01, is taken as the floor ('<='); the source prints it plain. Penicillin G is assumed for 'penicillin'. Isolates are numbered anew. PBP alleles are the type numbers of penicillin-binding proteins 1a, 2b and 2x; equal numbers mean equal sequences. Some results are limits rather than exact numbers.

Compound in assay [1]: CC1(C)S[C@@H]2[C@H](NC(=O)Cc3ccccc3)C(=O)N2[C@H]1C(=O)O [penicillin G]
The experiment in a line: Broth microdilution. Background: Dilution methods test growth across graded concentrations, often in twofold steps.

Compound in assay [2]: CC1(C)S[C@@H]2[C@H](NC(=O)[C@H](N)c3ccc(O)cc3)C(=O)N2[C@H]1C(=O)O [amoxicillin]
The experiment in a line: Broth microdilution.

What is called MIC is the smallest concentration in the dilution series that meets the test's criterion for growth inhibition.

Turning to “Streptococcus pneumoniae isolate 22 (PBP alleles 1a 2b 2x: 2_0_3, serotype: 7C)”, the MIC in assay [1] and in assay [2] was no more than 0.01 µg/mL each time.
With “Streptococcus pneumoniae isolate 23 (PBP alleles 1a 2b 2x: 0_0_2, serotype: 35D)”, the MIC in assay [1] and in assay [2] was no more than 0.01 µg/mL throughout.
Regarding “Streptococcus pneumoniae isolate 24 (PBP alleles 1a 2b 2x: 2_0_6, serotype: 33F)”, the MIC in assay [1] and in assay [2] was no more than 0.01 µg/mL throughout.
For the test system “Streptococcus pneumoniae isolate 25 (PBP alleles 1a 2b 2x: 0_0_0, serotype: 15B/C)”, the MIC was 0.03 µg/mL in assay [1] and no more than 0.01 µg/mL in assay [2].
The like results for “Streptococcus pneumoniae isolate 26 (PBP alleles 1a 2b 2x: 2_0_2, serotype: 15B/C)” were, in that order, 0.03 µg/mL and 0.03 µg/mL.
The corresponding values for “Streptococcus pneumoniae isolate 27 (PBP alleles 1a 2b 2x: 0_0_2, serotype: 35B)” are 0.03 µg/mL and no more than 0.01 µg/mL.
The like results for “Streptococcus pneumoniae isolate 28 (PBP alleles 1a 2b 2x: 2_0_6, serotype: 23A)” were, in that order, 0.03 µg/mL and 0.03 µg/mL.
In the case of “Streptococcus pneumoniae isolate 29 (PBP alleles 1a 2b 2x: 0_0_0, serotype: 15B/C)”, the MIC in assay [1] is 0.03 µg/mL; in assay [2], no more than 0.01 µg/mL.
“Streptococcus pneumoniae isolate 30 (PBP alleles 1a 2b 2x: 2_0_2, serotype: 21)”: the MIC in assay [1] and in assay [2] was no more than 0.01 µg/mL in each case.
For the test system “Streptococcus pneumoniae isolate 31 (PBP alleles 1a 2b 2x: 86_82_162, serotype: Non-typeable/NCC2a)”, the MIC in assay [1] and in assay [2] was no more than 0.01 µg/mL in each case.
“Streptococcus pneumoniae isolate 32 (PBP alleles 1a 2b 2x: 0_0_0, serotype: 15B/C)”: the MIC is 0.03 µg/mL in assay [1] and no more than 0.01 µg/mL in assay [2].
For the test system “Streptococcus pneumoniae isolate 33 (PBP alleles 1a 2b 2x: 2_0_0, serotype: 19F)”, the MIC in assay [1] is 0.03 µg/mL; in assay [2], no more than 0.01 µg/mL.
Regarding “Streptococcus pneumoniae isolate 34 (PBP alleles 1a 2b 2x: 12_0_0, serotype: 31)”, the MIC in assay [1] and in assay [2] was no more than 0.01 µg/mL each time.
On to “Streptococcus pneumoniae isolate 35 (PBP alleles 1a 2b 2x: 78_0_0, serotype: Serogroup 24)”, for which the MIC is 0.03 µg/mL in assay [1] and no more than 0.01 µg/mL in assay [2].
The like results for “Streptococcus pneumoniae isolate 36 (PBP alleles 1a 2b 2x: 1_0_0, serotype: 15A)” were, in that order, no more than 0.01 µg/mL and no more than 0.01 µg/mL.
For the test system “Streptococcus pneumoniae isolate 37 (PBP alleles 1a 2b 2x: 3_6_5, serotype: 8)”, the MIC in assay [1] is 0.03 µg/mL; in assay [2] it was no more than 0.01 µg/mL.
The corresponding values for “Streptococcus pneumoniae isolate 38 (PBP alleles 1a 2b 2x: 1_0_187, serotype: 19A)” are 0.03 µg/mL and no more than 0.01 µg/mL.
As to “Streptococcus pneumoniae isolate 39 (PBP alleles 1a 2b 2x: 23_27_77, serotype: 12F)”, the MIC in assay [1] and in assay [2] was 0.125 µg/mL throughout.
For “Streptococcus pneumoniae isolate 40 (PBP alleles 1a 2b 2x: 0_0_2, serotype: 10A)”, the MIC in assay [1] is 0.03 µg/mL; in assay [2] it was no more than 0.01 µg/mL.
The corresponding values for “Streptococcus pneumoniae isolate 41 (PBP alleles 1a 2b 2x: 2_0_0, serotype: 17F)” are no more than 0.01 µg/mL and no more than 0.01 µg/mL.
On to “Streptococcus pneumoniae isolate 42 (PBP alleles 1a 2b 2x: 1_0_0, serotype: 15B/C)”, for which the MIC in assay [1] was 0.03 µg/mL; in assay [2], no more than 0.01 µg/mL.
The corresponding values for “Streptococcus pneumoniae isolate 43 (PBP alleles 1a 2b 2x: 2_6_10, serotype: 11A)” are no more than 0.01 µg/mL and no more than 0.01 µg/mL.
The corresponding values for “Streptococcus pneumoniae isolate 44 (PBP alleles 1a 2b 2x: 2_6_0, serotype: 11A)” are 0.03 µg/mL and no more than 0.01 µg/mL.
The like results for “Streptococcus pneumoniae isolate 45 (PBP alleles 1a 2b 2x: 2_0_6, serotype: 33F)” were, in that order, 0.03 µg/mL and no more than 0.01 µg/mL.
In the case of “Streptococcus pneumoniae isolate 46 (PBP alleles 1a 2b 2x: 0_0_0, serotype: 34)”, the MIC in assay [1] and in assay [2] was 0.03 µg/mL each time.
“Streptococcus pneumoniae isolate 47 (PBP alleles 1a 2b 2x: 2_New_2, serotype: 21)”: the MIC in assay [1] was 0.03 µg/mL; in assay [2], no more than 0.01 µg/mL.
The like results for “Streptococcus pneumoniae isolate 48 (PBP alleles 1a 2b 2x: 1_0_0, serotype: 15A)” were, in that order, 0.03 µg/mL and no more than 0.01 µg/mL.
Consider “Streptococcus pneumoniae isolate 49 (PBP alleles 1a 2b 2x: 3_6_5, serotype: 8)”, for which the MIC in assay [1] and in assay [2] was 0.03 µg/mL each time.
In the case of “Streptococcus pneumoniae isolate 50 (PBP alleles 1a 2b 2x: 7_1_1, serotype: 23B1)”, the MIC was 0.25 µg/mL in assay [1] and 0.06 µg/mL in assay [2].
The corresponding values for “Streptococcus pneumoniae isolate 51 (PBP alleles 1a 2b 2x: 2_0_3, serotype: 7C)” are 0.03 µg/mL and 0.03 µg/mL.
For the test system “Streptococcus pneumoniae isolate 52 (PBP alleles 1a 2b 2x: 0_0_2, serotype: 35B)”, the MIC in assay [1] and in assay [2] was 0.03 µg/mL each time.
On to “Streptococcus pneumoniae isolate 53 (PBP alleles 1a 2b 2x: 1_2_2, serotype: 22F)”, for which the figures for the MIC in assay [1] and in assay [2] were 0.03 µg/mL and no more than 0.01 µg/mL, respectively.
With “Streptococcus pneumoniae isolate 54 (PBP alleles 1a 2b 2x: 1_0_0, serotype: 15A)”, the MIC in assay [1] is 0.03 µg/mL; in assay [2] it was no more than 0.01 µg/mL.
The like results for “Streptococcus pneumoniae isolate 55 (PBP alleles 1a 2b 2x: 1_0_187, serotype: 19A)” were, in that order, no more than 0.01 µg/mL and no more than 0.01 µg/mL.
The corresponding values for “Streptococcus pneumoniae isolate 56 (PBP alleles 1a 2b 2x: 2_6_0, serotype: 11A)” are no more than 0.01 µg/mL and no more than 0.01 µg/mL.
In the case of “Streptococcus pneumoniae isolate 57 (PBP alleles 1a 2b 2x: 0_0_0, serotype: 15B/C)”, the MIC in assay [1] and in assay [2] was 0.03 µg/mL throughout.
In the case of “Streptococcus pneumoniae isolate 58 (PBP alleles 1a 2b 2x: 2_4_0, serotype: 38)”, the MIC in assay [1] and in assay [2] was 0.03 µg/mL throughout.
For the test system “Streptococcus pneumoniae isolate 59 (PBP alleles 1a 2b 2x: 2_4_0, serotype: 38)”, the minimum inhibitory concentration (MIC) in assay [1] and in assay [2] was 0.03 µg/mL throughout.
With “Streptococcus pneumoniae isolate 60 (PBP alleles 1a 2b 2x: 2_6_0, serotype: 11A)”, the MIC in assay [1] and in assay [2] was no more than 0.01 µg/mL each time.
Turning to “Streptococcus pneumoniae isolate 61 (PBP alleles 1a 2b 2x: 86_82_162, serotype: Non-typeable/NCC2a)”, the MIC in assay [1] and in assay [2] was no more than 0.01 µg/mL throughout.
Consider “Streptococcus pneumoniae isolate 62 (PBP alleles 1a 2b 2x: 7_0_1, serotype: 23B1)”, for which the MIC was found to be 0.125 µg/mL in assay [1] and 0.03 µg/mL in assay [2].
“Streptococcus pneumoniae isolate 63 (PBP alleles 1a 2b 2x: 2_0_2, serotype: 21)”: the MIC in assay [1] and in assay [2] was 0.03 µg/mL each time.
For the test system “Streptococcus pneumoniae isolate 64 (PBP alleles 1a 2b 2x: 0_0_3, serotype: 35F)”, the figures for the MIC in assay [1] and in assay [2] were 0.03 µg/mL and no more than 0.01 µg/mL, respectively.
Turning to “Streptococcus pneumoniae isolate 65 (PBP alleles 1a 2b 2x: 0_0_2, serotype: 35B)”, the results for the MIC in assay [1] and in assay [2] were 0.03 µg/mL and no more than 0.01 µg/mL, respectively.
The corresponding values for “Streptococcus pneumoniae isolate 66 (PBP alleles 1a 2b 2x: 2_0_2, serotype: 21)” are 0.03 µg/mL and no more than 0.01 µg/mL.
Regarding “Streptococcus pneumoniae isolate 67 (PBP alleles 1a 2b 2x: 15_76_New, serotype: 11A)”, the MIC in assay [1] is 2 µg/mL; in assay [2], 8 µg/mL.
For “Streptococcus pneumoniae isolate 68 (PBP alleles 1a 2b 2x: 0_0_2, serotype: 10A)”, the minimum inhibitory concentration (MIC) in assay [1] and in assay [2] was no more than 0.01 µg/mL each time.
Consider “Streptococcus pneumoniae isolate 69 (PBP alleles 1a 2b 2x: 2_0_3, serotype: 34)”, for which the minimum inhibitory concentration (MIC) in assay [1] was 0.03 µg/mL; in assay [2] it was no more than 0.01 µg/mL.
Consider “Streptococcus pneumoniae isolate 70 (PBP alleles 1a 2b 2x: 7_1_1, serotype: 23B1)”, for which the values for the minimal inhibitory concentration (MIC) in assay [1] and in assay [2] were 0.25 µg/mL and 0.06 µg/mL, respectively.
The like results for “Streptococcus pneumoniae isolate 71 (PBP alleles 1a 2b 2x: 2_4_3, serotype: 10A)” were, in that order, 0.03 µg/mL and no more than 0.01 µg/mL.
The corresponding values for “Streptococcus pneumoniae isolate 72 (PBP alleles 1a 2b 2x: 1_0_0, serotype: 15B/C)” are no more than 0.01 µg/mL and no more than 0.01 µg/mL.
